PubChem BioAssay AID1508642 (National Center for Advancing Translational Sciences (NCATS), 2021)
Hit rate of the full screen: of about 43,000 compounds, about 200 (0.47%) were called active. About 12% were inconclusive and are not listed. The call rests on the fitted dose curve; in most records, active means well fitted cell-killing curve with a large enough effect; inconclusive means small, poorly fitted or top-dose-only effect, or effect the other way; inactive means flat fitted curve, though single readings scatter. The list shows a part of the results.

Assay: Cell viability qHTS assay in S16 Pmp22-F2sN cells; further: nearly all actives have a fitted effect of over 65% in size
Conditions: S16 Pmp22-F2sN Schwann cells (luciferase reporters placed in the Pmp22 gene) viability, CellTiter-Glo, 24 h; series mostly up to 57.5 µM; activity change, negative = cytotoxicity: at the top concentration
Procedure, shortened: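 Rat S16 Schwann reporter line, 24 h treatment with library compounds delivered at 23 nL per well. Cell viability by CellTiter-Glo luminescence.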
On the % scale 0 is the no-effect control and ±100 the full control effect.

SMILES	activity change, negative = cytotoxicity
CCOC(=O)c1c(S(=O)(=O)N2CCC(C(=O)NCc3ccccc3OC)CC2)c(C)n(C)c1C	inactive: 2.94%
Cc1cc(C)cc(OCC(=O)N(Cc2ccc(Cl)cc2)CC2CCCO2)c1 (stereo not drawn)	inactive: -4.24%
CCCCSCCCNC(=O)c1cn(C)c2ccc(S(=O)(=O)N3CCCC3)cc2c1=O	inactive: -15.6%
CC1CCCCN1S(=O)(=O)c1cc2c3c(c1)CC(=O)N3CCC2 (stereo not drawn)	inactive: -37.3%
COc1ccc(N2CCN(CCCNC(=O)c3cc(Nc4ccccc4OC)nc4ccccc34)CC2)cc1	inactive: 19%
COc1cc(C(=O)N2CCN(c3ccc(Nc4ccccc4)nn3)CC2)cc(OC)c1OC	inactive: -26.8%
Cc1ccc(-n2nnnc2CNC(=O)c2ccccc2)cc1C	inactive: -4.23%
CC(C)c1ccc(NC(=O)C2(C)Cc3ccccc3C(=O)O2)cc1 (stereo not drawn)	inactive: -3.21%
CC(C)C(NS(=O)(=O)c1cccc2cccnc12)C(=O)Nc1ccc(OC(F)(F)F)cc1 (stereo not drawn)	inactive: 1.89%
O=C(c1ccccc1)c1ccc2nc(Nc3cc(Cl)ccc3O)c3nncn3c2c1	inactive: 1.42%
Cc1ccc2c(c1)-c1c(cnn1CC(=O)N1CCN(c3cc(Cl)ccc3C)CC1)CO2	inactive: 9.89%
Cc1cc(C)c(NC(=O)CCC(=O)N2Cc3ccccc3Oc3ncccc32)c(C)c1	inactive: -1.54%
COC(=O)c1ccccc1NC(=O)Cn1c(=O)n(CCCC(=O)NCCc2ccc(OC)c(OC)c2)c(=O)c2ccccc21	inactive: 18.8%
CCCOc1ccc(C2c3c(oc4ccccc4c3=O)C(=O)N2c2nc(C)c(C(=O)OCC)s2)cc1 (stereo not drawn)	inactive: 1.9%
COc1ccc(S(=O)(=O)NCc2ccc(C(=O)NCc3ccccc3)cc2)cc1	inactive: 2.32%
Cc1ccc(-c2nc(C)c(CCNC(=O)C(=O)Nc3ccc4c(c3)OCO4)s2)cc1	inactive: 17.5%
COc1ccc(CCN2C(=O)N(c3ccccc3)C(=O)C2CC(=O)Nc2ccccc2)cc1 (stereo not drawn)	inactive: 2.05%
CCc1ccc(NC(=O)c2cc3c([nH]c2=O)CC(C)(C)CC3=O)cc1	inactive: 17.6%
COc1ccc(CNC(=O)c2ccc(-c3nc(CSc4ccccc4)c(C)o3)cc2)c(OC)c1	inactive: 1.95%
N#Cc1c[nH]n2c(NC3CCCCC3)c(-c3cccc(Cl)c3)nc12	inactive: -4.97%
CCOc1ccc2oc(=O)cc(CN3CCN(c4ccccc4)CC3)c2c1	inactive: -23.6%
Cc1nc(N2CCOCC2)c2c(C(=O)N3CCN(c4cccc(C)c4C)CC3)c(C)oc2n1	inactive: -8.61%
COc1cc(C(=O)N2CC(=O)Nc3ccc(C)cc3C2c2ccc(F)cc2)cc(OC)c1OC (stereo not drawn)	inactive: -1.46%
CCOC(=O)C1CCN(CCC(=O)Nc2ccc(OC)cc2)CC1	inactive: 24%

SMILES	activity change, negative = cytotoxicity
CCCN1C(=O)C2(c3ccccc31)c1c(oc3ccc(C)cc3c1=O)C(=O)N2CCOC (stereo not drawn)	inactive: 5.84%
COc1ccc(NC(=O)c2cn3c4c(ccc(Cl)c4c2=O)OC(C)C3)cc1OC (stereo not drawn)	inactive: -3.51%
CSc1ncc(C(=O)Nc2ccc(C(C)=O)cc2)c(-c2ccccc2)n1	inactive: 0.659%
CCOc1ccc2nc(NC(=O)c3cc(=O)c4cc(C)cc(C)c4o3)sc2c1	inactive: 13.8%
Cc1cccc(NC(=O)CSc2nc3c(oc4ccccc43)c(=O)n2-c2ccc(F)cc2)c1	inactive: -9.49%
COc1ccc2c(CNCCc3ccccc3)c(C(=O)O)n(Cc3cccc(F)c3)c2c1	inactive: 11.7%
O=S(=O)(c1ccc2nc(N3CCN(c4ccccc4)CC3)ccc2c1)N1CCCCC1	inactive: 9.05%
Cc1ccc(NC(=O)CC(C)S(=O)(=O)c2ccc3c(c2)NC(=O)CO3)cc1C (stereo not drawn)	inactive: -2.48%
Cc1cc(-c2ccc(S(=O)(=O)Nc3ccc(Br)c(C)c3)s2)on1	inactive: -15.6%
CSc1nnc2[nH]c(=O)cc(C)n12	inactive: 1.45%
Cc1cccc(NC(=O)Cc2ccc(-n3c(C)nc4cccnc43)cc2)c1C	inactive: -12.3%
O=c1c2cnn(-c3ccc(F)cc3)c2ncn1Cc1ccc(F)cc1	inactive: 13%
COc1ccc(Cl)cc1NC(=O)Cn1cc2c(n1)CCC(C)C2 (stereo not drawn)	inactive: -2.07%
COC(=O)c1cc2oc(C)cc2n1CC(=O)Nc1cc(Cl)ccc1OC	inactive: -1.92%
O=C(CSc1ncc(CO)n1Cc1ccc(Cl)cc1)NCc1ccc(F)cc1	inactive: -3.29%
COc1ccc(C(=O)Oc2cc(-c3ccc4c(c3)OCO4)cc(=O)c3c(C)oc(C)c23)cc1	inactive: 6.51%
Cc1cccc(NC(=O)CSc2nc(=O)n(Cc3ccccn3)c3c2CCC3)c1C	inactive: 2.05%
COc1ccc(CNC(=O)c2cc3cccc4c3n2CC(C)S4)c(OC)c1 (stereo not drawn)	inactive: -24.2%
Cc1ccc(Cl)cc1NC(=O)CSc1nc2c(c(=O)[nH]1)CN(Cc1ccccc1)CC2	inactive: 6.4%
COc1ccc(S(=O)(=O)N2CCN(CC(=O)Nc3ccc(Cl)c(C(F)(F)F)c3)CC2)cc1	inactive: -19.3%
CCOc1ccc(NC(=O)N(C(C)C)C2CCN(C(C)=O)CC2)cc1	inactive: 3.94%
CCOC(=O)c1ccc(NC(=O)CCc2c(C)nc3c(-c4ccc(F)cc4)c(C)nn3c2C)cc1	inactive: 18.4%
Cc1ccc(-c2onc(C)c2C)cc1S(=O)(=O)Nc1ccc(Cl)cn1	inactive: -4.67%
Cc1ccccc1C(=O)Nc1ccc(C(=O)OCc2cc(=O)n3nc(C(C)C)sc3n2)cc1	inactive: 1.06%
